# Test results as given in the supplement of paper PMC8728848.
# The other results are listed elsewhere or left out.
# Experiments:
# Test in all cases: glycan array binding signal (z-score within array); higher = stronger binding
# Settings in all cases: glycan notation: IUPAC condensed, linker removed; mutation: E41G
# [1] = target: GlcNAc(b1-4)GlcNAc(b1-4)GlcNAc(b1-4)GlcNAc(b1-4)GlcNAc
# Procedure, shortened: (§1)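 The binding signal is a Z-score computed within each array. Data were drawn from 3228 arrays in the Consortium for Functional Glycomics database, restricted to those with a known protein sequence. Scores were averaged over arrays of the same protein sequence at different concentrations or buffers, and over linkers, and negative values can be taken as non-binding.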
# [2] = target: GlcNAc(b1-4)GlcNAc(b1-4)GlcNAc(b1-4)GlcNAc(b1-4)GlcNAc(b1-4)GlcNAc
# Procedure, shortened: as §1
# [3] = target: GlcNAc(b1-4)[GlcNAc(b1-6)]GalNAc
# Procedure, shortened: as §1
# [4] = target: GlcNAc(b1-6)Gal(b1-4)GlcNAc
# Procedure, shortened: as §1
# [5] = target: GlcNAc(b1-6)GalNAc
# Procedure, shortened: as §1
# [6] = target: GlcNAc6S(b1-3)Gal(b1-4)GlcNAc
# Procedure, shortened: as §1
# [7] = target: Kdn(a2-3)Gal(b1-3)GalNAc
# Procedure, shortened: as §1
# [8] = target: Kdn(a2-3)Gal(b1-3)GlcNAc
# Procedure, shortened: as §1
# [9] = target: Kdn(a2-3)Gal(b1-4)Glc
# Procedure, shortened: as §1
# [10] = target: Kdn(a2-3)Gal(b1-4)GlcNAc
# Procedure, shortened: as §1
# [11] = target: Kdn(a2-3)Gal(b1-4)[Fuc(a1-3)]GlcNAc
# Procedure, shortened: as §1
# [12] = target: Kdn(a2-6)Gal(b1-4)GlcNAc
# Procedure, shortened: as §1
# [13] = target: Man(a1-2)Man(a1-2)Man(a1-3)Man
# Procedure, shortened: as §1
# [14] = target: Man(a1-2)Man(a1-2)Man(a1-6)[Man(a1-3)]Man
# Procedure, shortened: as §1
# [15] = target: Man(a1-2)Man(a1-3)Man
# Procedure, shortened: as §1
# [16] = target: Man(a1-2)Man(a1-3)[Man(a1-2)Man(a1-6)]Man
# Procedure, shortened: as §1
# [17] = target: Man(a1-2)Man(a1-3)[Man(a1-2)Man(a1-6)]Man(a1-6)[Man(a1-2)Man(a1-2)Man(a1-3)]Man
# Procedure, shortened: as §1
# [18] = target: Man(a1-2)Man(a1-3)[Man(a1-2)Man(a1-6)]Man(a1-6)[Man(a1-2)Man(a1-2)Man(a1-3)]Man(b1-4)GlcNAc(b1-4)GlcNAc
# Procedure, shortened: as §1
# [19] = target: Man(a1-2)Man(a1-3)[Man(a1-6)]Man(a1-6)[Man(a1-2)Man(a1-3)]Man(b1-4)GlcNAc(b1-4)GlcNAc
# Procedure, shortened: as §1
# [20] = target: Man(a1-2)Man(a1-6)[Man(a1-3)]Man(a1-6)[Man(a1-2)Man(a1-2)Man(a1-3)]Man
# Procedure, shortened: as §1
# [21] = target: Man(a1-2)Man(a1-6)[Man(a1-3)]Man(a1-6)[Man(a1-2)Man(a1-2)Man(a1-3)]Man(b1-4)GlcNAc(b1-4)GlcNAc
# Procedure, shortened: as §1
# [22] = target: Man(a1-3)[Man(a1-6)]Man
# Procedure, shortened: as §1
# [23] = target: Man(a1-3)[Man(a1-6)]Man(a1-6)[Man(a1-2)Man(a1-3)]Man(b1-4)GlcNAc(b1-4)GlcNAc
# Procedure, shortened: as §1
# [24] = target: Man(a1-3)[Man(a1-6)]Man(a1-6)[Man(a1-3)]Man
# Procedure, shortened: as §1
# [25] = target: Man(a1-3)[Man(a1-6)]Man(a1-6)[Man(a1-3)]Man(b1-4)GlcNAc(b1-4)GlcNAc
# Procedure, shortened: as §1
# [26] = target: Man(a1-3)[Man(a1-6)]Man(b1-4)GlcNAc(b1-4)GlcNAc
# Procedure, shortened: as §1
# [27] = target: Man(a1-3)[Man(a1-6)]Man(b1-4)GlcNAc(b1-4)[Fuc(a1-6)]GlcNAc
# Procedure, shortened: as §1
# [28] = target: Man(a1-6)Man
# Procedure, shortened: as §1
# [29] = target: Man(b1-4)GlcNAc
# Procedure, shortened: as §1
# [30] = target: MurNAc(b1-4)GlcNAc
# Procedure, shortened: as §1
# [31] = target: Neu5Ac(a2-3)Gal
# Procedure, shortened: as §1
# [32] = target: Neu5Ac(a2-3)Gal(b1-3)GalNAc
# Procedure, shortened: as §1
# [33] = target: Neu5Ac(a2-3)Gal(b1-3)GalNAc(b1-3)Gal(a1-4)Gal(b1-4)Glc
# Procedure, shortened: as §1
# [34] = target: Neu5Ac(a2-3)Gal(b1-3)GalNAc(b1-4)Gal(b1-4)Glc
# Procedure, shortened: as §1
# [35] = target: Neu5Ac(a2-3)Gal(b1-3)GalNAc(b1-4)[Neu5Ac(a2-3)]Gal(b1-4)Glc
# Procedure, shortened: as §1
# [36] = target: Neu5Ac(a2-3)Gal(b1-3)GalNAc(b1-4)[Neu5Ac(a2-8)Neu5Ac(a2-3)]Gal(b1-4)Glc
# Procedure, shortened: as §1
# [37] = target: Neu5Ac(a2-3)Gal(b1-3)GalNAc6S
# Procedure, shortened: as §1
# [38] = target: Neu5Ac(a2-3)Gal(b1-3)GlcNAc
# Procedure, shortened: as §1
# [39] = target: Neu5Ac(a2-3)Gal(b1-3)GlcNAc(b1-2)Man
# Procedure, shortened: as §1
# [40] = target: Neu5Ac(a2-3)Gal(b1-3)GlcNAc(b1-2)Man(a1-3)[GlcNAc(b1-4)][Neu5Ac(a2-3)Gal(b1-3)GlcNAc(b1-2)Man(a1-6)]Man(b1-4)GlcNAc(b1-4)GlcNAc
# Procedure, shortened: as §1
# [41] = target: Neu5Ac(a2-3)Gal(b1-3)GlcNAc(b1-2)Man(a1-3)[Neu5Ac(a2-3)Gal(b1-3)GlcNAc(b1-2)Man(a1-6)]Man(b1-4)GlcNAc(b1-4)GlcNAc
# Procedure, shortened: as §1
# [42] = target: Neu5Ac(a2-3)Gal(b1-3)GlcNAc(b1-2)[Neu5Ac(a2-3)Gal(b1-3)GlcNAc(b1-4)]Man(a1-6)[Neu5Ac(a2-3)Gal(b1-3)GlcNAc(b1-2)Man(a1-3)]Man(b1-4)GlcNAc(b1-4)GlcNAc
# Procedure, shortened: as §1
# [43] = target: Neu5Ac(a2-3)Gal(b1-3)GlcNAc(b1-3)Gal(b1-3)GlcNAc
# Procedure, shortened: as §1
# [44] = target: Neu5Ac(a2-3)Gal(b1-3)GlcNAc(b1-3)Gal(b1-4)GlcNAc
# Procedure, shortened: as §1
# [45] = target: Neu5Ac(a2-3)Gal(b1-3)GlcNAc(b1-3)GalNAc
# Procedure, shortened: as §1
binder,measurement,setting,value
CVN-E41G (protein) MHHHHHHENLYFQSGNFSQACYNSAIQGSVLTSTCIRTNGGYNTSSIDLNSVIGNVDGSLKWQGSNFIETCRNTQLAGSSELAAECKTRAQQFVSTKINLDDHIAAIDGTLKYE,glycan array binding signal (z-score),[1],-0.141
same,glycan array binding signal (z-score),[2],-0.125
same,glycan array binding signal (z-score),[3],-0.194
same,glycan array binding signal (z-score),[4],-0.121
same,glycan array binding signal (z-score),[5],-0.18
same,glycan array binding signal (z-score),[6],-0.121
same,glycan array binding signal (z-score),[7],-0.154
same,glycan array binding signal (z-score),[8],-0.157
same,glycan array binding signal (z-score),[9],-0.07
same,glycan array binding signal (z-score),[10],-0.154
same,glycan array binding signal (z-score),[11],-0.134
same,glycan array binding signal (z-score),[12],-0.145
same,glycan array binding signal (z-score),[13],7.32
same,glycan array binding signal (z-score),[14],9.78
same,glycan array binding signal (z-score),[15],5.5
same,glycan array binding signal (z-score),[16],8.72
same,glycan array binding signal (z-score),[17],11
same,glycan array binding signal (z-score),[18],0.041
same,glycan array binding signal (z-score),[19],6.59
same,glycan array binding signal (z-score),[20],8.16
same,glycan array binding signal (z-score),[21],8.78
same,glycan array binding signal (z-score),[22],-0.118
same,glycan array binding signal (z-score),[23],4
same,glycan array binding signal (z-score),[24],-0.129
same,glycan array binding signal (z-score),[25],0.273
same,glycan array binding signal (z-score),[26],-0.165
same,glycan array binding signal (z-score),[27],0.148
same,glycan array binding signal (z-score),[28],-0.063
same,glycan array binding signal (z-score),[29],-0.122
same,glycan array binding signal (z-score),[30],-0.097
same,glycan array binding signal (z-score),[31],-0.196
same,glycan array binding signal (z-score),[32],-0.136
same,glycan array binding signal (z-score),[33],-0.163
same,glycan array binding signal (z-score),[34],-0.111
same,glycan array binding signal (z-score),[35],-0.163
same,glycan array binding signal (z-score),[36],-0.17
same,glycan array binding signal (z-score),[37],-0.148
same,glycan array binding signal (z-score),[38],-0.157
same,glycan array binding signal (z-score),[39],-0.161
same,glycan array binding signal (z-score),[40],0.122
same,glycan array binding signal (z-score),[41],-0.059
same,glycan array binding signal (z-score),[42],0.185
same,glycan array binding signal (z-score),[43],-0.184
same,glycan array binding signal (z-score),[44],-0.141
same,glycan array binding signal (z-score),[45],-0.139
